Results published in the supplement of paper PMC9151546.
Single values are uncertain, as repeats are few or missing.

Experiments:
CHO-K1 [1] = assay: hypodiploid nuclei frequency (% of nucleated events); higher = more hypodiploid events (aneugenic)
CHO-K1 [2] = assay: relative survival (nuclei to bead ratio vs DMSO control) (% of vehicle control); higher = more surviving cells
CHO-K1 [3] = assay: micronucleus frequency (% of nucleated events); higher = more micronuclei (genotoxic)
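Throughout, for hypodiploid nuclei frequency (% of nucleated events): hypodiploid nuclei gated on a flow cytometer with 488 nm excitation after SYTOX Green staining, cultures at 37 °C, positive controls vinblastine without S9 and cyclophosphamide with S9.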
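Throughout, for micronucleus frequency (% of nucleated events): cells lysed with nuclei stained by SYTOX Green, then micronucleus-gated events counted against nucleated events by flow cytometry with 488 nm excitation.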
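Throughout, for relative survival (nuclei to bead ratio vs DMSO control): Lysed-cell nuclei stained with SYTOX Green and counted against counting beads by flow cytometry at 488 nm excitation, with vinblastine (no S9) and cyclophosphamide (plus S9) as positive controls.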

COP(=O)(OC)OC=C(Cl)Cl [Dichlorvos]
Conditions	hypodiploid nuclei frequency, CHO-K1 [1] [%]	micronucleus frequency, CHO-K1 [3] [%]	relative survival, CHO-K1 [2]
concentration: 2.25 (µM), S9 metabolic activation: with S9, exposure time: 3-4 hours	0.28	1.6	106
concentration: 2.25 (µM), S9 metabolic activation: without S9, exposure time: 24 hours	0.82	1.3	106
concentration: 2.81 (µM), S9 metabolic activation: with S9, exposure time: 3-4 hours	0.2	1.6	122
concentration: 2.81 (µM), S9 metabolic activation: without S9, exposure time: 24 hours	0.78	1.52	90.3
concentration: 3.52 (µM), S9 metabolic activation: with S9, exposure time: 3-4 hours	0.18	1.26	113
concentration: 3.52 (µM), S9 metabolic activation: without S9, exposure time: 24 hours	0.64	1.2	105
concentration: 4.4 (µM), S9 metabolic activation: with S9, exposure time: 3-4 hours	0.32	1.84	109
concentration: 4.4 (µM), S9 metabolic activation: without S9, exposure time: 24 hours	0.52	1.22	120
concentration: 5.5 (µM), S9 metabolic activation: with S9, exposure time: 3-4 hours	0.34	0.94	121
concentration: 5.5 (µM), S9 metabolic activation: without S9, exposure time: 24 hours	0.78	1.72	118
concentration: 6.9 (µM), S9 metabolic activation: with S9, exposure time: 3-4 hours	0.34	2.58	104
concentration: 6.9 (µM), S9 metabolic activation: without S9, exposure time: 24 hours	0.58	1.08	122
concentration: 8.6 (µM), S9 metabolic activation: with S9, exposure time: 3-4 hours	0.2	0.96	121
concentration: 8.6 (µM), S9 metabolic activation: without S9, exposure time: 24 hours	0.44	1.38	154
concentration: 10.7 (µM), S9 metabolic activation: with S9, exposure time: 3-4 hours	0.4	1.64	130
concentration: 10.7 (µM), S9 metabolic activation: without S9, exposure time: 24 hours	0.56	1.56	112
concentration: 13.4 (µM), S9 metabolic activation: with S9, exposure time: 3-4 hours	0.28	1.2	103
concentration: 13.4 (µM), S9 metabolic activation: without S9, exposure time: 24 hours	0.62	1.5	80.9
concentration: 16.8 (µM), S9 metabolic activation: with S9, exposure time: 3-4 hours	0.28	1.28	93.6
concentration: 16.8 (µM), S9 metabolic activation: without S9, exposure time: 24 hours	0.66	1.28	81.3
concentration: 21 (µM), S9 metabolic activation: with S9, exposure time: 3-4 hours	0.18	0.9	73.9
concentration: 21 (µM), S9 metabolic activation: without S9, exposure time: 24 hours	0.54	1.4	95.7
concentration: 26.2 (µM), S9 metabolic activation: with S9, exposure time: 3-4 hours	0.22	1.16	115
concentration: 26.2 (µM), S9 metabolic activation: without S9, exposure time: 24 hours	0.88	1.76	88.3
concentration: 32.8 (µM), S9 metabolic activation: with S9, exposure time: 3-4 hours	0.24	1.12	93.3
concentration: 32.8 (µM), S9 metabolic activation: without S9, exposure time: 24 hours	0.7	1.54	80
concentration: 41 (µM), S9 metabolic activation: with S9, exposure time: 3-4 hours	0.26	0.84	122
concentration: 41 (µM), S9 metabolic activation: without S9, exposure time: 24 hours	0.84	1.3	112
concentration: 51 (µM), S9 metabolic activation: with S9, exposure time: 3-4 hours	0.32	1.24	79.3
concentration: 51 (µM), S9 metabolic activation: without S9, exposure time: 24 hours	0.8	1.54	115
concentration: 64 (µM), S9 metabolic activation: with S9, exposure time: 3-4 hours	0.12	0.76	80.5
concentration: 64 (µM), S9 metabolic activation: without S9, exposure time: 24 hours	0.88	2.06	129
concentration: 80 (µM), S9 metabolic activation: with S9, exposure time: 3-4 hours	0.18	1.12	73.9
concentration: 80 (µM), S9 metabolic activation: without S9, exposure time: 24 hours	0.9	1.96	106
concentration: 100 (µM), S9 metabolic activation: with S9, exposure time: 3-4 hours	0.14	1.41	64.8
concentration: 100 (µM), S9 metabolic activation: without S9, exposure time: 24 hours	1.04	1.58	109

O=NO [Sodium nitrite]
Conditions	hypodiploid nuclei frequency, CHO-K1 [1] [%]	micronucleus frequency, CHO-K1 [3] [%]	relative survival, CHO-K1 [2]
concentration: 4.57 (µM), S9 metabolic activation: with S9, exposure time: 3-4 hours	0.22	1.22	89.9
concentration: 4.57 (µM), S9 metabolic activation: without S9, exposure time: 24 hours	0.68	1.1	149
concentration: 5.71 (µM), S9 metabolic activation: with S9, exposure time: 3-4 hours	0.24	1.32	83.5
concentration: 5.71 (µM), S9 metabolic activation: without S9, exposure time: 24 hours	0.9	1.22	134
concentration: 7.14 (µM), S9 metabolic activation: with S9, exposure time: 3-4 hours	0.12	1.42	87.4
concentration: 7.14 (µM), S9 metabolic activation: without S9, exposure time: 24 hours	0.7	1.32	108
concentration: 8.93 (µM), S9 metabolic activation: with S9, exposure time: 3-4 hours	0.18	1.3	88.1
concentration: 8.93 (µM), S9 metabolic activation: without S9, exposure time: 24 hours	0.78	1.74	138
concentration: 11.2 (µM), S9 metabolic activation: with S9, exposure time: 3-4 hours	0.28	1.14	91.7
concentration: 11.2 (µM), S9 metabolic activation: without S9, exposure time: 24 hours	0.64	1.7	130
concentration: 14 (µM), S9 metabolic activation: with S9, exposure time: 3-4 hours	0.36	1.34	86.4
concentration: 14 (µM), S9 metabolic activation: without S9, exposure time: 24 hours	0.62	1.9	126
concentration: 17.4 (µM), S9 metabolic activation: with S9, exposure time: 3-4 hours	0.28	1.38	89.2
concentration: 17.4 (µM), S9 metabolic activation: without S9, exposure time: 24 hours	0.7	2.16	120
concentration: 21.8 (µM), S9 metabolic activation: with S9, exposure time: 3-4 hours	0.22	1.24	91
concentration: 21.8 (µM), S9 metabolic activation: without S9, exposure time: 24 hours	0.56	1.92	113
concentration: 27.2 (µM), S9 metabolic activation: with S9, exposure time: 3-4 hours	0.1	1	94.8
concentration: 27.2 (µM), S9 metabolic activation: without S9, exposure time: 24 hours	0.48	1.08	105
concentration: 34.1 (µM), S9 metabolic activation: with S9, exposure time: 3-4 hours	0.16	0.7	106
concentration: 34.1 (µM), S9 metabolic activation: without S9, exposure time: 24 hours	0.76	1.16	117
concentration: 42.6 (µM), S9 metabolic activation: with S9, exposure time: 3-4 hours	0.36	1.7	103
concentration: 42.6 (µM), S9 metabolic activation: without S9, exposure time: 24 hours	0.76	1.56	112
concentration: 53.2 (µM), S9 metabolic activation: with S9, exposure time: 3-4 hours	0.22	1.98	103
concentration: 53.2 (µM), S9 metabolic activation: without S9, exposure time: 24 hours	0.98	2.04	105
concentration: 66.5 (µM), S9 metabolic activation: with S9, exposure time: 3-4 hours	0.38	2.44	88.5
concentration: 66.5 (µM), S9 metabolic activation: without S9, exposure time: 24 hours	0.84	1.68	107
concentration: 83.1 (µM), S9 metabolic activation: with S9, exposure time: 3-4 hours	0.2	1.62	116
concentration: 83.1 (µM), S9 metabolic activation: without S9, exposure time: 24 hours	1.06	2.22	114
concentration: 104 (µM), S9 metabolic activation: with S9, exposure time: 3-4 hours	0.14	2.5	86.1
concentration: 104 (µM), S9 metabolic activation: without S9, exposure time: 24 hours	1.54	2.48	114
concentration: 130 (µM), S9 metabolic activation: with S9, exposure time: 3-4 hours	0.26	1.4	84.5
concentration: 130 (µM), S9 metabolic activation: without S9, exposure time: 24 hours	1.66	2.28	108
concentration: 162 (µM), S9 metabolic activation: with S9, exposure time: 3-4 hours	0.12	1.92	91.7
concentration: 162 (µM), S9 metabolic activation: without S9, exposure time: 24 hours	0.9	2.7	107
concentration: 203 (µM), S9 metabolic activation: with S9, exposure time: 3-4 hours	0.24	1.68	94.4
concentration: 203 (µM), S9 metabolic activation: without S9, exposure time: 24 hours	1.5	2.72	97.6

C[C@]12CC[C@@H]3c4ccc(O)cc4CC[C@H]3[C@@H]1CCC2=O [Estrone]
Conditions	hypodiploid nuclei frequency, CHO-K1 [1] [%]	micronucleus frequency, CHO-K1 [3] [%]	relative survival, CHO-K1 [2]
concentration: 4.5 (µM), S9 metabolic activation: with S9, exposure time: 3-4 hours	0.34	1.78	85.1
concentration: 4.5 (µM), S9 metabolic activation: without S9, exposure time: 24 hours	0.86	1.9	104
concentration: 5.63 (µM), S9 metabolic activation: with S9, exposure time: 3-4 hours	0.28	1.5	95.7
concentration: 5.63 (µM), S9 metabolic activation: without S9, exposure time: 24 hours	0.74	2.46	140
concentration: 7.04 (µM), S9 metabolic activation: with S9, exposure time: 3-4 hours	0.18	1.82	72.9
concentration: 7.04 (µM), S9 metabolic activation: without S9, exposure time: 24 hours	1.04	2.1	108
concentration: 8.8 (µM), S9 metabolic activation: with S9, exposure time: 3-4 hours	0.4	1.82	84.5
concentration: 8.8 (µM), S9 metabolic activation: without S9, exposure time: 24 hours	1.22	2.28	111
concentration: 11 (µM), S9 metabolic activation: with S9, exposure time: 3-4 hours	0.34	1.6	82.3
concentration: 11 (µM), S9 metabolic activation: without S9, exposure time: 24 hours	1.36	2.56	114
concentration: 13.7 (µM), S9 metabolic activation: with S9, exposure time: 3-4 hours	0.16	1.6	84.8
concentration: 13.7 (µM), S9 metabolic activation: without S9, exposure time: 24 hours	1.9	2.38	105
concentration: 17.2 (µM), S9 metabolic activation: with S9, exposure time: 3-4 hours	0.24	1.5	75
concentration: 17.2 (µM), S9 metabolic activation: without S9, exposure time: 24 hours	2.2	3.1	112
concentration: 21.5 (µM), S9 metabolic activation: with S9, exposure time: 3-4 hours	0.18	1.28	92.9
concentration: 21.5 (µM), S9 metabolic activation: without S9, exposure time: 24 hours	1.8	3.02	90.7
concentration: 26.8 (µM), S9 metabolic activation: with S9, exposure time: 3-4 hours	0.18	1.44	86.8
concentration: 26.8 (µM), S9 metabolic activation: without S9, exposure time: 24 hours	2.76	3.24	105
concentration: 33.6 (µM), S9 metabolic activation: with S9, exposure time: 3-4 hours	0.2	1.08	98.6
concentration: 33.6 (µM), S9 metabolic activation: without S9, exposure time: 24 hours	3.48	4.36	90.3
concentration: 41.9 (µM), S9 metabolic activation: with S9, exposure time: 3-4 hours	0.2	1.74	88
concentration: 41.9 (µM), S9 metabolic activation: without S9, exposure time: 24 hours	4.46	4.74	99.5
concentration: 52.4 (µM), S9 metabolic activation: with S9, exposure time: 3-4 hours	0.2	1.28	81.5
concentration: 52.4 (µM), S9 metabolic activation: without S9, exposure time: 24 hours	4.76	4.16	91.1
concentration: 65.5 (µM), S9 metabolic activation: with S9, exposure time: 3-4 hours	0.2	1.36	79.5
concentration: 65.5 (µM), S9 metabolic activation: without S9, exposure time: 24 hours	3.84	3.94	114
concentration: 81.9 (µM), S9 metabolic activation: with S9, exposure time: 3-4 hours	0.16	1.84	73.3
concentration: 81.9 (µM), S9 metabolic activation: without S9, exposure time: 24 hours	4.16	4.56	108
concentration: 102 (µM), S9 metabolic activation: with S9, exposure time: 3-4 hours	0.24	1.84	82.3
concentration: 102 (µM), S9 metabolic activation: without S9, exposure time: 24 hours	4.3	3.88	86.3
concentration: 128 (µM), S9 metabolic activation: with S9, exposure time: 3-4 hours	0.18	0.9	82.6
concentration: 128 (µM), S9 metabolic activation: without S9, exposure time: 24 hours	4.12	4.72	81.8
concentration: 160 (µM), S9 metabolic activation: with S9, exposure time: 3-4 hours	0.2	0.9	66.6
concentration: 160 (µM), S9 metabolic activation: without S9, exposure time: 24 hours	4.62	4.46	91.5
concentration: 200 (µM), S9 metabolic activation: with S9, exposure time: 3-4 hours	0.24	1.32	76.6
concentration: 200 (µM), S9 metabolic activation: without S9, exposure time: 24 hours	3.82	4.2	93.4
